Reference: the supplement of paper PMC11417369
The list shows a part of the results.

test system: PfAP2-HC AP2 domain (GST-tagged); experiment: gcPBM binding intensity (ln(normalized median fluorescence intensity)); higher = stronger DNA binding
How it was run: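 Using an Agilent 4 × 180k array, primer-extended double-stranded 36-bp intergenic genomic probes and negative controls were exposed for 1 h to GST-fused P. falciparum DNA-binding domains expressed in E. coli. Binding was carried out in 1× PBS with 1% milk, 0.2 mg/ml BSA, 0.5% salmon testes DNA and 0.03% Triton X-100, and protein was detected with Alexa488 anti-GST antibody and a 488 nm scan. Binding intensity is the highest Masliner-normalised natural-log median intensity across replicate spots of either probe orientation.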

For “TTTTTCTATAAAAAAAAAAAAAAAAAATATATATAT [TGCATGCA_negctrl_site535]”, which “gcPBM binding intensity (ln)” value is on record?
The value was 9.33.

For “TTGTATATTTTATGTACACACAATAAGTTAATATAA [CACACA_site4655]”, which “gcPBM binding intensity (ln)” value is on record?
Its value is 9.63.

How did the “gcPBM binding intensity (ln)” value turn out when “AAAATAATGTATATATGTACATATAAATATATATAT [XGTACX_site8081]” was run?
The value was 9.89.

Which “gcPBM binding intensity (ln)” value does the source give for “TATTATTGCATATTTACACACGTACTAATTTAAACA [CACACA_site970]” here?
The value was 9.91.

With “TTTTACAAATATAATGGGTGAGCTATCAAAATAAAT [GTGCAC_negctrl_site91]” as the sequence, how does the “gcPBM binding intensity (ln)” value read?
The value was 9.49.

With “TGTATACTATTAAATTGTACACATAAGAAATATTAT [XGTACX_site5839]” as the sequence, how does the “gcPBM binding intensity (ln)” value read?
The value was 9.61.

“AAAAAAATACCATTCACACATATTCTTTTATTATTT [CACACA_site5113]” was tested. Which “gcPBM binding intensity (ln)” value did it give?
The value was 9.75.

How did the “gcPBM binding intensity (ln)” value turn out when “AAAAAAAAAAAGTTTACACACATTAATTTTACATAT [CACACA_site834]” was run?
Its value is 9.9.

Which “gcPBM binding intensity (ln)” value does the source give for “TTTCATAACAAAAAAGTGCAAAATAGCACGAACATT [GTGCAC_site9703]” here?
Its value is 9.76.

How did the “gcPBM binding intensity (ln)” value turn out when “AGAAAAAGGAGAAAAAGTACAAAACGGAGTAGTATT [XGTACX_site3858]” was run?
The value was 9.82.

For “AAAAATTATATACATCATAGAATTAACATTTTAAAT [GTGCAC_negctrl_site369]”, which “gcPBM binding intensity (ln)” value is on record?
Its value is 9.61.

Which “gcPBM binding intensity (ln)” value does the source give for “TAATAATACCCTTGCTGTACCAAATAAAGTTGAATA [XGTACX_site6922]” here?
The value was 9.52.

With “AAATCAACGATCTATACATGCATATAATATATACAT [TGCATGCA_site25]” as the sequence, how does the “gcPBM binding intensity (ln)” value read?
The value was 9.61.

For “GTAGCAATAAACATATGTACATATATATATTTTTTC [XGTACX_site5814]”, which “gcPBM binding intensity (ln)” value is on record?
The value was 9.8.

Which “gcPBM binding intensity (ln)” value does the source give for “ACAAACAAAGAAAGAACACACATACACAATATACCT [CACACA_site5566]” here?
The value was 10.3.

For “ATATTTAAATAATATTCACACACAAAATTATATTTT [CACACA_site7955]”, which “gcPBM binding intensity (ln)” value is on record?
Its value is 10.

Which “gcPBM binding intensity (ln)” value does the source give for “CATATAAAAATATATGCACACAAATAAAAAATTATA [CACACA_site9210]” here?
Its value is 9.81.

How did the “gcPBM binding intensity (ln)” value turn out when “ATTTCTCAATCGTAATGTACAAAAAAAAGGGAAAAG [XGTACX_site2781]” was run?
Its value is 9.63.

With “TATGAGGAAACGTGGTGTACTTTTTTTTAATAAAAA [XGTACX_site1351]” as the sequence, how does the “gcPBM binding intensity (ln)” value read?
The value was 9.34.

“ATAAATATAATAATCATACACACCAAAGAGAATATT [CACACA_site1888]” was tested. Which “gcPBM binding intensity (ln)” value did it give?
The value was 10.

“AAAGTTATTATGCAATAATTATGATAATTAATATAT [TGCATGCA_negctrl_site316]” was tested. Which “gcPBM binding intensity (ln)” value did it give?
Its value is 9.61.

How did the “gcPBM binding intensity (ln)” value turn out when “ATGACTTACATATATAGTACTTTGTTTTGGAGTTGC [XGTACX_site94]” was run?
The value was 9.57.

“ACTCTTGATCTGAATGCACACAATAAATTATATAAA [CACACA_site1438]” was tested. Which “gcPBM binding intensity (ln)” value did it give?
Its value is 9.69.

For “ATATATTATATATATTGTACATGTAAAATTTTAAAA [XGTACX_site7197]”, which “gcPBM binding intensity (ln)” value is on record?
The value was 9.74.

Which “gcPBM binding intensity (ln)” value does the source give for “AAAAATTTGGCATACACACACACACCCACACCCACA [CACACA_site587]” here?
Its value is 10.4.

Which “gcPBM binding intensity (ln)” value does the source give for “TATGTATTTAAATTAACACACATATGTGGTTAATAG [CACACA_site5697]” here?
The value was 9.58.

“ACATATATATATATATATATATATATATCATTATGT [CACACA_negctrl_site724]” was tested. Which “gcPBM binding intensity (ln)” value did it give?
The value was 9.54.

For “TACTGCCTTCCATACCCACACACTTCCCATATATTT [CACACA_site2705]”, which “gcPBM binding intensity (ln)” value is on record?
Its value is 10.1.

Which “gcPBM binding intensity (ln)” value does the source give for “AAAACGCTACATAATTGTACATGTAGAAATAAAAGC [XGTACX_site2895]” here?
The value was 10.

With “TCTAAAAATAAGAACACACACATATAAGCATATAAA [CACACA_site2274]” as the sequence, how does the “gcPBM binding intensity (ln)” value read?
Its value is 10.2.

For “ATTTAAAAAAAAAAAACACACATGTGAATAGAAAAG [CACACA_site3323]”, which “gcPBM binding intensity (ln)” value is on record?
The value was 10.1.

“AGTATAATAATATTTACACACGCATATGTTATATAT [CACACA_site1476]” was tested. Which “gcPBM binding intensity (ln)” value did it give?
The value was 9.84.

“CATACAAATTAATATGTACACACAAATATATATATA [CACACA_site8605]” was tested. Which “gcPBM binding intensity (ln)” value did it give?
Its value is 9.92.

Which “gcPBM binding intensity (ln)” value does the source give for “AGTAGTCTGGAGAAAAGTACATAGTATCTGGTAACC [XGTACX_site2024]” here?
Its value is 9.74.

How did the “gcPBM binding intensity (ln)” value turn out when “TTTTACAATAATAAGTAGATCTAAATAAAGATTTAA [GTGCAC_negctrl_site547]” was run?
The value was 9.45.

With “TTTTTTTTTTTTTTTTGTACATATTTTAATTTGTTT [XGTACX_site6297]” as the sequence, how does the “gcPBM binding intensity (ln)” value read?
The value was 9.11.

How did the “gcPBM binding intensity (ln)” value turn out when “TTTATATTATTTAATGAGAAATAATTATAAACAATT [TGCATGCA_negctrl_site65]” was run?
The value was 9.4.

With “TTCCAAAATTGCACATGTACAAAATTCTCCAATATG [XGTACX_site3419]” as the sequence, how does the “gcPBM binding intensity (ln)” value read?
Its value is 9.54.

How did the “gcPBM binding intensity (ln)” value turn out when “AAAAAAAAAAAATAATGTACATATGTATTTGAGAAA [XGTACX_site3572]” was run?
Its value is 9.66.

With “TATGTATATATATATATATATATATATATATATATA [TGCATGCA_negctrl_site491]” as the sequence, how does the “gcPBM binding intensity (ln)” value read?
The value was 9.62.

For “ATGGCCACTGTGAAATGTACAAAAAAAAAATACAAT [XGTACX_site2874]”, which “gcPBM binding intensity (ln)” value is on record?
The value was 9.64.

Which “gcPBM binding intensity (ln)” value does the source give for “TATGTGCACCCATGTACATGCGGACATATGTTATAT [TGCATGCA_site383]” here?
The value was 9.83.

“TTGCCCATTTAATTAACACACAAATATTTATATTCT [CACACA_site738]” was tested. Which “gcPBM binding intensity (ln)” value did it give?
The value was 10.

For “GTTAAATAATATATATGTACATACATAAGTGTTACT [XGTACX_site4778]”, which “gcPBM binding intensity (ln)” value is on record?
Its value is 9.76.
